In PubChem BioAssay AID1919013 (Molecular Pharmacology Branch, DTP, NCI, 2023) one finds viability, T/C and IC50 data, which are given here for 3 compounds.

This assay deals with LG0703-F498-PDC complex spheroid growth. The assay can be described thus: Anticancer human tumor LG0703-F498-PDC patient-derived lung adenocarcinoma cell line growth inhibition [AhR]. The note with it: for viability, T/C: stronger effect = lower value. The source says:
Multicellular complex tumor spheroid response to aryl hydrocarbon receptor antagonists in combination with a variety of drugs and investigational agents in selected tumor cell lines
The current study was undertaken to assess response to aryl hydrocarbon receptor antagonists in combination with standard-of-care drugs and investigational agents in solid tumor complex spheroid models. Complex spheroids include a stromal component modeled by human endothelial cells (HUVEC) and fibroblasts modeled by human mesenchymal stem cells (MSCs). The concentration ranges selected for each drug and investigational agent were based upon clinically achievable concentrations if the clinical Cmax of the agent was known.
Compounds. The drugs and investigational agents: BAY 2416964 (NSC825713), GNF351 (NSC835774), CH-223191 (NSC835775), CPI-455 (NSC825282), aza-TdCyd (NSC777586), decitabine (NSC127716), belinostat (NSC758774), entinostat (NSC756642), pevonedistat (NSC761192), tazemetostat (NSC777109), talazoparib (NSC765396), olaparib (NSC753686), selinexor (NSC780203), nedisertib (M3814, NSC802822), bortezomib (NSC756655), venetoclax (NSC766270), doxorubicin (NSC123127), elimusertib (BAY189344, NSC800525), ceralasertib (AZD6738, NSC777638), TAK-243 (NSC785004), alisertib (NSC759677), etoposide (NSC141540), topotecan (NSC609699), eribulin (NSC707389), gemcitabine (NSC613327), carboplatin (NSC241240), cisplatin (NSC119875), and SN-38 (NSC673596) were obtained from the National Cancer Institute (NCI) Developmental Therapeutics Program Chemical Repository (32). The FDA-approved anticancer drug set is available from the Developmental Therapeutics Program at https://dtp.cancer.gov/organization/dscb/obtaining/available plates.htm. […] The stock solutions were prepared in dimethyl sulfoxide (DMSO, Sigma-Aldrich, St. Louis, MO, cat. D2650), except for the platinum compounds which were prepared in saline (Quality Biological, Gaithersburg, MD, cat. 114-055-101), at 800-fold the tested concentration and stored at -70 degrees C prior to their use. All drugs and investigational agents were tested over a range starting from a high concentration at or near the clinical Cmax and decreasing in half-log increments. If the clinical Cmax for an agent had not been determined, the highest concentration tested was 10 microM (Table 1).
Cell Culture. All cells were maintained in an incubator at 37 degrees C and 5% CO2 with 95% humidity. The PDC lines were cultured according to standard operating procedures established by the NCI PDMR (https://pdmr.cancer.gov). Briefly, all PDCs were thawed and cultured in Matrigel-coated flasks prepared with a working solution of 1X Ham's F-12 nutrient mix, without supplementation (Invitrogen, Waltham, MA, cat. 11765054), 100 U/mL penicillin-streptomycin (Invitrogen, cat. 15140122), and 2.5% Matrigel (Corning Inc., Corning, NY, cat. 354248) for the first three passages. All PDCs were cultured in complete DMEM/F-12 media containing advanced DMEM/F-12 (Invitrogen, cat. 12634028), 4.9% defined fetal bovine serum, heat inactivated (HyClone Laboratories Inc., Logan, UT, cat. SH30070.03HI), 389 ng/mL hydrocortisone (Sigma-Aldrich, cat. H4001), 9.7 ng/mL human EGF recombinant protein (Invitrogen, cat. PHG0313), 23.4 microg/mL adenine (Sigma-Aldrich, cat. A2786), 97.3 U/mL penicillin-streptomycin (Invitrogen, cat. 15140122), 1.9 mM L-glutamine (Invitrogen, cat. 25030081), and 9.7 microM Y-27632 dihydrochloride (Tocris Bioscience, Bristol, United Kingdom, cat. 1254). The PDCs were cultured in complete DMEM/F12 media without 10 microM Y-27632 dihydrochloride for at least two passages prior to the screen. The established cell lines NCI-H1341 and […] were cultured in DMEM/F-12, HEPES (Invitrogen, cat. 11330032), 5% defined fetal bovine serum (HyClone Laboratories Inc., cat. SH30070.03), ITS premix universal culture supplement [insulin (5 microg/mL), transferrin (5 microg/mL), and selenious acid (5 ng/mL)] […]

A number of entries come with more than one value. They are shown here; other results are not. An entry can have further records. Values that stand side by side repeat one measurement (runs, samples, wells, individuals or studies). Brackets with × give the number of equal values in this list. Marks such as [2022-09] give the month of the run.
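Also: luminescence taken as a proxy for viable cell amount.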
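For viability, T/C in this document: percent of DMSO vehicle control where 100% means growth equal to vehicle.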

Take `CC(CO)NC(=O)c1cc(-c2ccc(Cl)cc2)nn(-c2cnn(C)c2)c1=O` (stereo unspecified): the viability, T/C was 101, 91, 103, 96.7, 102 (2×), 94.4, 95.4, 90.9, 98.1, 90.7, 91.4, 99.1, 77.5, 80.2, 90, 95.1, 91.5, 89, 85.7% (compound alone 0.1 µM); 87.8, 74.2, 109, 84.5, 93, 84.1, 88, 82.6, 89.7, 85.3, 97.5, 102, 89.2, 81.8, 91.8, 93.4 (2×), 94, 96.2, 83.5, 96.3% (compound alone 0.316 µM); 87.6, 82.5, 83.9, 82.2, 84, 79.8, 68.5, 83.8, 74, 91.1, 90.3, 78.4, 83.5, 85.8, 87.8, 93.8, 78.7, 84.3, 91.6% (compound alone 3.16 µM).
Consider `Cc1cncc(-c2nc(NCCc3c[nH]c4ccccc34)c3ncn(C(C)C)c3n2)c1`, for which, under “combination with AhR antagonists, compound alone, run of 06/06/2022”, the IC50 (commonly the concentration that inhibits the measured activity by half) is 3.37 µM and 2.2 µM and 3.1, 4.15, 3.82, 3.61, 4.23, 3.07, 2.79, 2.74, 2.59, 2.61, 4.01, 3.05, 2.67, 2.62, 1.59, 1.89, 4.98, 2.48, 2.58, 2.64, 2.51, 2.37 µM [2022-06]. Besides, the viability, T/C is 88.8, 101 (4×), 94.3, 89.3, 94.6, 93.7, 99.1, 84.9, 106, 91.2, 94.9, 110, 104, 117, 102, 93.4, 81.9% (compound alone 0.1 µM); 92.5, 97.3, 95.8, 102, 110, 98, 105, 113, 99.9, 93.9, 94.9, 98.5, 89.1 (2×), 101, 109, 114, 116, 96.2, 92.3% (compound alone 0.316 µM); 102 (2×), 111, 122, 97.6, 98.3, 103, 93.9, 98.5, 92.6, 114 (2×), 92.7, 104 (2×), 90, 99.9, 81.3, 90.3, 97.5% (compound alone 1 µM); 49.1, 65.1, 59.7, 56.5, 66.6, 48.8, 44.7, 43, 41.1, 39.2, 62.5, 48.6, 53, 42.9, 40.2, 25.2, 3.41, 17.4, 81.9, 37.5, 38.3% (compound alone 3.16 µM).
On to `Cc1ccccc1N=Nc1ccc(NC(=O)c2ccnn2C)c(C)c1`, for which the viability, T/C is, setting by setting: (compound alone 0.1 µM) 105, 95.7, 92.9, 92.5, 102, 100, 89.6, 89.7, 86.6, 110, 99.4, 90.7, 93.4 (2×), 85.8, 101, 91.3, 94.8, 90.3, 82.2%; (compound alone 0.316 µM) 103 (2×), 93.6, 87.6, 97.8, 93, 83.5, 98.2, 95.9 (2×), 88.5, 93.2, 111, 88.8, 90.1, 93.7, 95.8, 85, 100, 85.5%; (compound alone 10 µM) 85.5, 93, 87.2, 79.8, 86.8 (2×), 79, 91.3, 84.4, 89.5, 89.8, 94, 81.5, 78.8, 87.7, 79.7, 91, 88.2, 95, 67.3%.
